In this assay the target is human PD-L1 His (human). Kind of assay: SPR, 25C. (In general: In SPR one partner is held on a chip, and binding of the other changes the refractive index at the surface.)

This note sets out measurements from US9567399 (dated 2017).

The term Kd denotes the constant that tells how readily two partners part at equilibrium. Lower therefore signals a tighter complex.

B1: 1D05 IgG1 disabled (antibody)
chain 1: EVQLVESGGGLVQPGRSLRLSCAASGFTFDDYAMHWVRQVPGKGLEWVSGISWIRTGIGYADSVKGRFTIFRDNAKNSLYLQMNSLRAEDTALYYCAKDMKGSGTYGGWFDTWGQGTLVTVSS[human IgG1 constant region with L235A G237A (EU numbers) omitted]
chain 2: [about 100 residues omitted][about 100 residues omitted]
B1 returned a Kd of 0.29 nM.
